Read counts are not given, so values of variants with three or more changes are uncertain.
B1: LINE1-mini (parent)
chain: GGCAGAGCUCAACACAGCGUGGCAAAGUGGCUGUGGCUAGACUGCC

Variants of: B1
Assay: self-cleavage, relative activity (ratio to wild type); higher = more cleavage; in vitro, sequencing; the parent is a self-cleaving ribozyme

| Variant | self-cleavage |
| --- | --- |
| GGCAAAGCUCAACACAGCAUGGCAAAGAGGGUGUGGCUAGACUGCC [G5A G19A U28A C31G] | 0 |
| GGCAAAUCUCAACACAGCGUGUCAAAGUGGCUGUGGCUAGACUGCC [G5A G7U G22U] | 0.03 |
| GGCAAAGCCCAAUACAGCGUUGCAAAGUGGCUGUGGCUAGACUGCC [G5A U9C C13U G21U] | 0.05 |
| GGCAAAGCUCAACACAGCGUGGCAAAGUGGCUGUGCCUAGACUGCA [G5A G36C C46A] | 0.14 |
| GGCAAAGCUCAACACAGCCUGGCAAAAUGGCUGUGGCUAGACUGGC [G5A G19C G27A C45G] | 0.03 |
| GGCAAAGCUCAACACAGCGUGAUAAAGUGGCUGGGGCUAGACUGGC [G5A G22A C23U U34G C45G] | 0.03 |
| GGCAAAGCCCAAAACAGCGUGUCAAAGUGGCUGUGGCUAGACUGCC [G5A U9C C13A G22U] | 0.01 |
| GGCAAAGCUCAACACAGCGUGACAAAGUGGCUGUGGCUAGUCUUCC [G5A G22A A41U G44U] | 0.12 |
| GGCAAAGCUCAACACAGCUUGGCAAAGUGUCUGUGGCUAGACUGCC [G5A G19U G30U] | 0.16 |
| GGCAAAGCACAACACAGCGUGGCAAAGUGGCAGUGGGUAGAUUGCC [G5A U9A U32A C37G C42U] | 0.1 |
| GGCAAAGCUCAACACAGCGUGGCAAAGUGGCUAUGGCUCGACUGCC [G5A G33A A39C] | 0.08 |
| GGCAAAGCUCAACACAGCGUGGCAAAGUGGCUGUUGUUAGACUGGC [G5A G35U C37U C45G] | 0.04 |
| GGCAAAGCUCAACACAGCGUGGCAAAGUUGUUGUGUCUAGACUGCC [G5A G29U C31U G36U] | 0.06 |
| GGCAAAGCUCAACACAGCGUGGCAAAUGGGCUGUGGCUAGACUGCC [G5A G27U U28G] | 0.16 |
| GGCAAAGCUCAACACAGCGUGGCAAAUUGUCUGUGGAUAGACUGCC [G5A G27U G30U C37A] | 0.12 |
| GGCAAAGCUCAACACAUCGUGGCAAAGUGGCUGUGGCAACACUUCC [G5A G17U U38A G40C G44U] | 0.01 |
| GGCAAAGCUCAACACAGCGUUGGAAAGUGGCUGUGGCUAGACAGCC [G5A G21U C23G U43A] | 0.01 |
| GGCAAAGCUCAACACAGCGUGGCAAAGUGCCUCUGGCUAGACUGCC [G5A G30C G33C] | 0.04 |
| GGCAAAGCUCAACACAGCGUGGCAAAGUGGCUUUUGCUAGACUGCC [G5A G33U G35U] | 0.05 |

| Variant | self-cleavage |
| --- | --- |
| GGCAAAGCUCAACACAGCGUGGCAAAGUGGCUGUUGAUAGACUACC [G5A G35U C37A G44A] | 0.11 |
| GGCAAAGCUCAACACAGCGUGCCAAAGUGGCUGUGGCUCGACUGCC [G5A G22C A39C] | 0.01 |
| GGCAAAGCUCAACACAGCGUGGCAAAGUGGCUAUGGCUAGACUGCU [G5A G33A C46U] | 0.07 |
| GGCAAAGCUCAACACAGCGUGGCAAAGUGGCUUUGGCUAGAGUGUC [G5A G33U C42G C45U] | 0 |
| GGCAAAGCUCAACACAGCGUCGCAAAGUGGCUGUGGCUACACUGCC [G5A G21C G40C] | 0.05 |
| GGCAAAUCUCAACAAAGCGUGGCAAAGUGGCUGUGGAUAGACUGCC [G5A G7U C15A C37A] | 0.25 |
| GGCAAAGCUCAACACAGCGUGGCAAACUGACUGUGGCUAGACUGCA [G5A G27C G30A C46A] | 0.05 |
| GGCAAAGCUCAACACAGCGUGGCAAAAUGGUUGUGGCUAGACUUCC [G5A G27A C31U G44U] | 0.03 |
| GGCAAAGCUCAACACAUCGUGGAACAGUGGCUGUGGCUAGACUGCC [G5A G17U C23A A25C] | 0.06 |
| GGCAAAGCUCAACACAGCGUGCCCAAGUGGCUGUGGCUAGACUGCC [G5A G22C A24C] | 0.04 |
| GGCAAAUCUUACGACAGCGUGCCAAAGUGGCUGUGGCUAGACUGGC [G5A G7U C10U A12C C13G G22C C45G] | 0.01 |
| GGCAAAGCUCAACACAGCCUGGCAAAGUGGGUGUGGCUAGACUGCC [G5A G19C C31G] | 0.05 |
| GGCAAAGCUCAACACAGCGUUGCAAAGUGGCUGUGGCUCGACUGCC [G5A G21U A39C] | 0.07 |
| GGCAAAUCUCGACACAGCGUAGCAAAGUGGCUGUGGCGAGACUGCC [G5A G7U A11G G21A U38G] | 0.01 |
| GGCAAAGCACAACACAGCGUGGUAAUGUGGCUGCGGCUAGACUGCC [G5A U9A C23U A26U U34C] | 0.39 |
| GGCAAAGCUCAACACAGCCUGGAAAAGUUGCUGUGGCUAGACUGCC [G5A G19C C23A G29U] | 0.05 |
| GGCAAAGCUCAACACAGCGUGCAAAAGUGGCUGUGGCUAGACUGCC [G5A G22C C23A] | 0.1 |
| GGCAAAGCUCAACACAGCGUUGCAAAGUAGCUGUGGCUAGACUGCC [G5A G21U G29A] | 0.13 |
| GGCAAAGCUCAACACAGCUCGGUAAAGUGGCUGUCGCUAGACUGCC [G5A G19U U20C C23U G35C] | 0.05 |

| Variant | self-cleavage |
| --- | --- |
| GGCAAAGCUCAACACAGCUUGGCAAAGUGGCUAUGGCUAGACUGCC [G5A G19U G33A] | 0.33 |
| GGCAAAGCUCAACACAGCAUGGCAAAGUGACUGUGGCUAGACUGCC [G5A G19A G30A] | 0.22 |
| GGCAAAGCUCAACACAGCGUGGCAAAUUGGCUUUGGCUAGACUGCG [G5A G27U G33U C46G] | 0.03 |
| GGCAAAUCUCUACACAGCGUGGCAAAGUGGCUGUGGAUAGACUGCC [G5A G7U A11U C37A] | 0.01 |
| GGCAAAGCUCAACACAGCGUGGCAAAGUGGCUGUGGCUACAGUGCC [G5A G40C C42G] | 0.02 |
| GGCAAAGCUCAACACAGCAUGGCAAAGUGGCCGUGGCUAGACUGCC [G5A G19A U32C] | 0.1 |
| GGCAAAGCUCAACACAUAGUGGCAAAGUGGCUGUGGCUAGACUGCC [G5A G17U C18A] | 0.13 |
| GGCAAAGCUCAACACAGCGUGGCAAACUGGCUGUGGGUAGACUGGC [G5A G27C C37G C45G] | 0.01 |
| GGCAAAGCACAACACAUCGUGGCAAAGUGGCUGCGGCUAGACCGCC [G5A U9A G17U U34C U43C] | 0.09 |
| GGCAAACCUCAACACAGCGUGGCAAAGUCGCUUUGGCUAGACUGCC [G5A G7C G29C G33U] | 0.03 |
| GGCAAAGCCAAACACAGCGUGGCAAAGUGGCUGUGGCCAGACCGGC [G5A U9C C10A U38C U43C C45G] | 0.02 |
| GGCAAAGCUCAACACAGCAUGGCAAAGCGGCUGUGGCUUGACUGCC [G5A G19A U28C A39U] | 0.02 |
| GGCAAAGCUCAACACAGCGUUGCAAAGUGACUGUGGCUAGACUGCC [G5A G21U G30A] | 0.64 |
| GGCAAAGCUCAACACAGCGUGGCAAAGUGCCUGUGGCUAGACUGAC [G5A G30C C45A] | 0.04 |
| GGCAAAGCUCAACACAGCGUUGCAAAGUGGCUGUGACUAGUCUGCC [G5A G21U G36A A41U] | 0.04 |
| GGCAAAGCUCAACACAGCGUUGCAAAGUGGCUGUGGCAAGACUGCC [G5A G21U U38A] | 0 |
| GGCAAAGCCCAACACAGCGUGGCAAAGUGGCUGUGUCUAGACUGCC [G5A U9C G36U] | 0.02 |
| GGCAAAGCUCAACACAGCGUGGCAAAAUGGUUGUGGCGAGACUGCC [G5A G27A C31U U38G] | 0.01 |
